The values below come from paper PMC4336329 (PLoS ONE, 2015).

Molecules are shown by their SMILES. The campaign covered roughly 310,000 compounds. About 2,200 (0.71%) showed an effect of 50% or more. The effect is printed as a negative number. This is one part of the list.

Sequence of human ether-à-go-go-related gene (hERG) potassium channel (Q12809 whole entry, looked up): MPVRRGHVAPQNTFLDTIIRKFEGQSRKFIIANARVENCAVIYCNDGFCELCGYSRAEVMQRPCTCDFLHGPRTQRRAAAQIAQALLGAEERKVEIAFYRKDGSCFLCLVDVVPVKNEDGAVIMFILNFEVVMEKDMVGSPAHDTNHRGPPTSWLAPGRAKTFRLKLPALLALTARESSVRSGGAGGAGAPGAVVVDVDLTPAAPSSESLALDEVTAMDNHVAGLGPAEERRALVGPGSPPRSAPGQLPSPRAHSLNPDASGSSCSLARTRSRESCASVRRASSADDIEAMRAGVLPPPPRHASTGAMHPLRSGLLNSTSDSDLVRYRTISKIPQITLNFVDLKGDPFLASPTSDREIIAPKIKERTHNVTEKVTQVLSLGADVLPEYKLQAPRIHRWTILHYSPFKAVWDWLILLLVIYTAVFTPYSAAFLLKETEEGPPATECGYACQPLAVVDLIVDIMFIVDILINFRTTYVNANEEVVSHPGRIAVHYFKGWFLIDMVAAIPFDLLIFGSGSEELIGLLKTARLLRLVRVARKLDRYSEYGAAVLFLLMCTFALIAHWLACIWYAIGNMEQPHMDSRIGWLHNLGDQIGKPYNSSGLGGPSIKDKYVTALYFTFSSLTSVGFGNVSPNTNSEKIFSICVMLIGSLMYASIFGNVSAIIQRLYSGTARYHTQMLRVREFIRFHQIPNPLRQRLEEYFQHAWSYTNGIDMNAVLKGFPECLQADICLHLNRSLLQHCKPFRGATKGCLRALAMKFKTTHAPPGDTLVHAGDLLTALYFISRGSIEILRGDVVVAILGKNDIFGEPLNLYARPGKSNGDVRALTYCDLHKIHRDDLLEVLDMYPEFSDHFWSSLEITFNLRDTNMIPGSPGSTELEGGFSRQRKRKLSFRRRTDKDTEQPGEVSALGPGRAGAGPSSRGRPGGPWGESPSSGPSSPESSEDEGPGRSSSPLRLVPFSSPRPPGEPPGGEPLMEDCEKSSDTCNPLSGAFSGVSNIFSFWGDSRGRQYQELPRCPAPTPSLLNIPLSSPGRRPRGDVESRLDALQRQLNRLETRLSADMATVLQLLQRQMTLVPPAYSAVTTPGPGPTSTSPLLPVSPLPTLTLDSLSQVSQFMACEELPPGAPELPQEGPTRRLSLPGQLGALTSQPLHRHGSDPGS

The test concerns the target human ether-à-go-go-related gene (hERG) potassium channel (human, UniProt Q12809). Kind of test: primary screen, population patch clamp on CHO cells stably expressing hERG.
For `CC1CCN(C(=O)CCc2ccc(Oc3cc([N+](=O)[O-])cc([N+](=O)[O-])c3)cc2)CC1`, the “hERG current change (%, negative = inhibition) at 1uM” value is listed as 2.92%. Take `COc1ccc(/C=C2\OC(=S)N(C)C2=O)cc1`: the “hERG current change (%, negative = inhibition) at 1uM” value was determined as 17%. On to `CCCN1CNC(=S)N(c2ccccc2OC)C1`, for which the “hERG current change (%, negative = inhibition) at 1uM” value was 0.455%. On to `CS(=O)(=O)N(CC(=O)O)c1ccc(Oc2ccccc2)cc1`, for which the “hERG current change (%, negative = inhibition) at 1uM” value was found to be 9.23%. `Cc1ccc(CNC(=O)CSc2nc(N3CCCCC3)nc(N3CCCCC3)n2)cc1`: the “hERG current change (%, negative = inhibition) at 1uM” value worked out at 17%. On to `COc1ccccc1S(=O)(=O)Cc1ccc(C(=O)N2CCCC2)o1`, for which the “hERG current change (%, negative = inhibition) at 1uM” value is 15.9%. With `Cc1cc(C(=O)Nc2c(C)nn(Cc3ccc(F)cc3)c2C)on1`, the “hERG current change (%, negative = inhibition) at 1uM” value is reported as 6.17%. As for `COC(=O)c1c(NC(=O)c2cccc(N3C(=O)CCC3=O)c2)sc2c1CCN(C(C)=O)C2`, the “hERG current change (%, negative = inhibition) at 1uM” value is 6.55%.

Regarding `Cc1cccc(NC(=S)N=Nc2c(O)[nH]c3ccccc23)c1`, the “hERG current change (%, negative = inhibition) at 1uM” value worked out at 7.3%. Regarding `CCCCOCCCn1c(N)c(C(=O)OCCOC)c2nc3ccccc3nc21`, the “hERG current change (%, negative = inhibition) at 1uM” value is listed as -0.912%.

For the compound `Cc1ccc(S(=O)(=O)N(CC(=O)N2CCc3ccccc3C2)c2cccc(Cl)c2)cc1`, the “hERG current change (%, negative = inhibition) at 1uM” value was determined as 3.36%. Regarding `NC(=O)C1Cc2ccccc2CN1C(=O)c1nn(Cc2ccccc2)c(=O)c2ccccc12` (stereo not shown), the “hERG current change (%, negative = inhibition) at 1uM” value was -5.84%. As for `NS(=O)(=O)c1ccc(NC(=O)COC(=O)c2cnccn2)cc1`, the “hERG current change (%, negative = inhibition) at 1uM” value is recorded as 8.19%.

Regarding `C#CC(CC)(CC)NC(=O)c1nn(-c2ccccc2Cl)c(C)cc1=O`, the “hERG current change (%, negative = inhibition) at 1uM” value came out at 16.2%. Regarding `CC(C)CCNC(=O)C(c1ccco1)N(C(=O)Cn1nnc2ccccc21)c1ccc2c(c1)OCO2` (stereo not shown), the “hERG current change (%, negative = inhibition) at 1uM” value is -1.26%.

Take `C#CCOCCOCCOCCNc1nc(N2CCN(C(=O)CCCCCCCCCCNC(=O)[C@H]([C@@H](C)CC)n3cc(CCCCN=C(N)N)nn3)CC2)nc(N2CCN(C(=O)CCCCCCCCCCNC(=O)[C@@H]([C@H](C)O)n3cc(C)nn3)CC2)n1`: the “hERG current change (%, negative = inhibition) at 1uM” value is on record as 14.8%. Take `CCN(CC)CC(=O)N1c2ccccc2CCc2ccc(NC(=O)c3cc(OC)c(OC)c(OC)c3)cc21`: the “hERG current change (%, negative = inhibition) at 1uM” value was 7.61%. For `COc1cc2c(C(=O)N3CCN(C)CC3)c(C)oc2cc1Br`, the “hERG current change (%, negative = inhibition) at 1uM” value is -16.2%.

For the compound `COc1ccc2c(C)c(CC(=O)N3C[C@H]4C[C@@H](C3)c3cccc(=O)n3C4)c(=O)oc2c1C`, the “hERG current change (%, negative = inhibition) at 1uM” value is given as 10.5%. The same measure for `COc1ccc(C(=O)NC(=S)NNC(=O)c2ccccc2O)cc1`: 15.1%. As to `COCCn1c(N)c(N(Cc2ccccc2)C(=O)C2CCCC2)c(=O)[nH]c1=O`, the “hERG current change (%, negative = inhibition) at 1uM” value turned out to be 11.6%. Take `COc1ccc(N/C(=C(/C(Cl)=C(Cl)Cl)[N+](=O)[O-])n2nnc3ccccc32)cc1OC`: the “hERG current change (%, negative = inhibition) at 1uM” value is listed as 12.5%.
